In patent publication US10723751B2 (priority 2013, dated 2020):

System: multiresistant Pseudomonas aeruginosa
Conditions: tracheal wash isolate

Compound | culture sensitivity
CC1=C(C(=O)O)N2C(=O)[C@@H](NC(=O)[C@H](N)c3ccccc3)[C@H]2SC1 [cephalexin] | resistance
CN1CCN(c2c(F)cc3c(=O)c(C(=O)O)cn4c3c2OCN4C)CC1 [marbofloxacin] | sensitive
